The full ranking holds about 33,000 sequences; the median of “E-score (-0.5 to 0.5)” is about -0.032, and the highest 2% start at about 0.36. The list shows a part of the results.
These sequences were tested against T1, Sko1 (UniProt Q02100) (assay: PBM E-score (8-mer binding enrichment) (E-score (-0.5 to 0.5)); higher = stronger / more preferred TF binding; most listed sequences are background and not binding sites). Conditions: protein concentration: 200 nM; construct: GST-full length.
T1 sequence: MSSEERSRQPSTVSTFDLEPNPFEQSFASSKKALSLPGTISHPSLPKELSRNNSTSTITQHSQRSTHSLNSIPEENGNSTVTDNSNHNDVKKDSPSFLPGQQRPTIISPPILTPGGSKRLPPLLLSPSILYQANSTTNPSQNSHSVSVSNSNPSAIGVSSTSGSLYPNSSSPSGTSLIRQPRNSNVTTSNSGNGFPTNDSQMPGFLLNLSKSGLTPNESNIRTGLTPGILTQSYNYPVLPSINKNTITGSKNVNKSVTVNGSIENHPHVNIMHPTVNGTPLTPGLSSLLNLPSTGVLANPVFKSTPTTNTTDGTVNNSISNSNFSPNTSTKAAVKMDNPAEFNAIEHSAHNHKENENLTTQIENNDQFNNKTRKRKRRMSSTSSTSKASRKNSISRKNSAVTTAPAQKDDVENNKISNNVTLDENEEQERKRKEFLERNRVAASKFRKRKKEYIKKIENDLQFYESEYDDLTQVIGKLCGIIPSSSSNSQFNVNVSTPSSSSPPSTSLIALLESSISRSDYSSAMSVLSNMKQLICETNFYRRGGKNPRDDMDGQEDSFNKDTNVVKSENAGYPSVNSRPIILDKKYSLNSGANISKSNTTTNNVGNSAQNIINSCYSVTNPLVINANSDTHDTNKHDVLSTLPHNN
Outline: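 Full-length yeast transcription factors or their DNA-binding domains, GST-tagged and expressed with PURExpress, were applied at about 100-200 nM to universal all-10-mer Agilent arrays. These arrays had been made double-stranded by primer extension on fresh or once-stripped slides. Detection used fluorescent anti-GST, normalisation used masliner, and E-scores for ungapped eight-base words pooled with reverse complements came from the Universal PBM Analysis Suite.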

Row | Sequence | PBM E-score
1 | CGAGGAAC | -0.145
2 | ATTAGTCA | 0.156
3 | AAGCAGCA | -0.239
4 | GGCCATTA | 0.0502
5 | ACGCGATA | 0.25
6 | CAGTTGGC | -0.159
7 | CACATACG | 0.276
8 | CGTGTACC | 0.13
9 | AGGCTAAA | -0.0916
10 | CACCGTTA | -0.00767
11 | AAGGATCC | -0.254
12 | AATGATTA | 0.312
13 | CGTCTCGA | 0.157
14 | GGCGACAC | -0.252
15 | GTCTATGA | 0.238
16 | CCGGCAAG | -0.205
17 | AAATATTG | 0.28
18 | AGTTCATC | 0.048
19 | GGCGGGTA | -0.0963
20 | AAGGATGT | -0.096
21 | CAAAACAA | -0.0728
22 | GACATTCC | -0.0417

Row | Sequence | PBM E-score
23 | AGGCGCTA | -0.0165
24 | CCGCCCAC | -0.19
25 | ACGCACAG | 0.254
26 | CTTGCACC | -0.112
27 | CACTCATG | -0.00775
28 | CGAGGATC | -0.0634
29 | AAGGGCTA | -0.213
30 | GGGTGACC | -0.15
31 | CCTGGGAG | -0.294
32 | AACGTTAC | 0.321
33 | AACTATAC | 0.0559
34 | GCGATGCA | -0.296
35 | GAAGATCA | 0.0236
36 | ACCGACAT | 0.115
37 | GTCGCGAA | -0.0307
38 | ACCAAACC | 0.0081
39 | CGAACAGA | -0.0377
40 | GCCAGGTA | -0.115
41 | CCAGGCTC | -0.153
42 | AAGATCAC | 0.0381
43 | GAGAGCCA | -0.118
44 | CCGGGTTC | -0.297

Row | Sequence | PBM E-score
45 | TATCCGAA | 0.00827
46 | CGCGCTTA | 0.165
47 | CATTTACA | 0.103
48 | CTAGTTTA | 0.0553
49 | AGGACGAG | -0.153
50 | ACTCATAT | 0.0856
51 | AAAGTGGA | -0.0436
52 | AATTGTGT | 0.108
53 | GAGAGGCC | -0.335
54 | GGTTGATA | -0.0764
55 | ACTTGACG | 0.331
56 | CTTTGCGA | -0.108
57 | AAGGCCTA | -0.229
58 | ACCCTCTG | -0.155
59 | CGTGTTAG | 0.295
60 | GAAAGGTC | -0.139
61 | GCATGTTA | 0.0316
62 | ACGACGTA | 0.446
63 | ATACGGTG | 0.0664
64 | AACTACCT | 0.029
65 | CCGGTAAC | 0.0117
66 | GCGCAACA | 0.175

Row | Sequence | PBM E-score
67 | ATCAACAA | 0.18
68 | ACGATGCC | -0.159
69 | CTAAAGCC | -0.113
70 | ATAAGTTG | 0.039
71 | AGGAAGTG | -0.18
72 | GTACGTGA | 0.416
73 | ATGAAATG | -0.059
74 | GGCTGAAC | -0.178
75 | GCGTCTTA | -0.0429
76 | CCGACACC | -0.299
77 | CCCATTTC | -0.321
78 | GTGCGCTA | -0.0664
79 | AAATAGCT | -0.0235
80 | CTGTTCAA | -0.0354
81 | CACGCTTC | -0.293
82 | CTATCATA | 0.0725
83 | AAACGACT | 0.012
84 | TATTTTGA | 0.145
85 | GCCATTTA | 0.0064
86 | CAGCATCA | 0.096
